Measurements as given in publication PMC4336329 (PLoS ONE, 2015).
About 14,000 (4.5%) of roughly 310,000 compounds showed an effect of 50% or more. Effects have a minus sign here. The list shows a part of the results. Where a SMILES comes first, the peptide text is derived from it. [ ]: non-standard residue; d: D form. ξ: configuration not given here. ξF = NC(Cc1ccccc1)C(=O)O

Target: human ether-à-go-go-related gene (hERG) potassium channel (human, UniProt Q12809)
Assay: primary screen, population patch clamp on CHO cells stably expressing hERG
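Further: peak tail current of the secondary pulse compared with the same well before compound.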

Sequence of human ether-à-go-go-related gene (hERG) potassium channel (Q12809 whole entry, looked up): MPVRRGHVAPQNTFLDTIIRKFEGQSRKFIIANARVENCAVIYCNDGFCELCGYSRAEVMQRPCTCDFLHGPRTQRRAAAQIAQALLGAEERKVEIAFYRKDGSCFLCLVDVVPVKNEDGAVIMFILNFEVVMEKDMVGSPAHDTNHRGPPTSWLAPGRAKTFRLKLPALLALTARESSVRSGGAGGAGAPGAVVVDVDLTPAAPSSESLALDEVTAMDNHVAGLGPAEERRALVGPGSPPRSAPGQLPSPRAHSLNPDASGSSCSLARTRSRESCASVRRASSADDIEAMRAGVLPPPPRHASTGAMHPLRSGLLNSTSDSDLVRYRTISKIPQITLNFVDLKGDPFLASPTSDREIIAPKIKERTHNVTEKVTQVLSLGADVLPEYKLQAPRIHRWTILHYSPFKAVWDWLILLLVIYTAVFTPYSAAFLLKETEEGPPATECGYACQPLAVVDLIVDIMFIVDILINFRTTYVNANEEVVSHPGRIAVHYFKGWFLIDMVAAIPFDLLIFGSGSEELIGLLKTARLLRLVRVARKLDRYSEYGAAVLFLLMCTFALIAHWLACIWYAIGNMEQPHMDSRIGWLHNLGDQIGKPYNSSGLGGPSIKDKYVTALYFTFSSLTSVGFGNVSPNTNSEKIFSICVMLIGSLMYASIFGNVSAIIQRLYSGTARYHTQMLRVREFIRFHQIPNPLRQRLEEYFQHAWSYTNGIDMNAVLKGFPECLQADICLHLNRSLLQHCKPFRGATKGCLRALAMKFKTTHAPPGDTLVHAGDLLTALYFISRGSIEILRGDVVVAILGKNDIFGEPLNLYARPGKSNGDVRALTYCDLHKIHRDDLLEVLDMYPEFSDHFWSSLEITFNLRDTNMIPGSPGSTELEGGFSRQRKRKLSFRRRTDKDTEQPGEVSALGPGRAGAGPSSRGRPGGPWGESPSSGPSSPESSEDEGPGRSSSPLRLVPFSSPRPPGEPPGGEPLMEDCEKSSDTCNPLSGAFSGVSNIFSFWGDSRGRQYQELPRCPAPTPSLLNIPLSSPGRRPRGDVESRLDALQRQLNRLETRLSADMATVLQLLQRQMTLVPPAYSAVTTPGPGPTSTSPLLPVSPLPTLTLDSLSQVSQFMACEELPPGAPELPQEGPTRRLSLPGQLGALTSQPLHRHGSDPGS

Compound	hERG current change (%, negative = inhibition) at 10uM [%]
CCCn1c2ccccc2c2cnn(CC(=O)NC(C)CC)c(=O)c21 (stereo not shown)	7.84
O=C(COc1ccc(Br)cc1)N/N=C1/SCC(=O)N1Cc1ccccc1	-40.2
O=C(O)C(O)c1ccccc1.O=C(O)C(O)c1ccccc1 (stereo not shown)	11.6
CN1C(=O)C2(Oc3ccccc3C3CC(c4ccccc4)=NN32)c2ccccc21 (stereo not shown)	6.76
COc1cc(OC)c(C2N(c3ccc(Cl)c(Cl)c3)C(=O)C3CCCN32)cc1OC (stereo not shown)	3.7
Cc1ccc(-c2noc(CNc3ccccc3)n2)cc1	5.41
CC(=O)c1sc(C(C)(C)C)cc1NC(=O)CCC(=O)O	16.3
COc1ccccc1CNC(=O)COC(=O)c1cc([N+](=O)[O-])ccc1N1CCOCC1	-48.9
Cc1cc(C(F)(F)F)c2c(C)nn(CCc3nn[nH]n3)c2n1	6.68
CCN(CC(=O)Nc1ccc(S(=O)(=O)N2CCOCC2)cc1)Cc1ccccc1	-16.5
CC(C)c1cc(C(=O)O)c2cnn(C(C)C)c2n1	-8.8
Cc1csc(/C(=N\O)c2csc(C)n2)n1	-0.141
Cc1c(-n2cc(C(=O)O)c(=O)c3cc(F)c(N4CCCC(O)C4)c(F)c32)c(=O)n(-c2ccccc2)n1C (stereo not shown)	0.52
CC(=O)NCC(=O)NC(Cc1ccccc1)C(N)=O (stereo not shown) (Ac-Gly-[ξF]-NH2)	7.6
COc1ccc(Nc2nc(N)c([N+](=O)[O-])c(NC3CCCCC3)n2)cc1	6.75
O=c1oc(-c2cc3ccccc3o2)nc2sc3c(c12)CCCC3	5.88
CCN(CC)CCCN1C=C2C(=O)C(C)(OC(=O)CCC(=O)OC)C(=O)C=C2C=C1C1CC1 (stereo not shown)	-13.4
Cc1ccc(Cn2nc(C)c(NC(=O)C3CC3)c2C)cc1	12.1
CC(=C/c1ccccc1)/C=N/NC(=O)c1ccccn1	-30.3
CCOc1ncccc1C(=O)N1CCN(S(=O)(=O)c2ccc3c(c2)OCCO3)CC1	2.36
CCN(CC)S(=O)(=O)c1cccc(NC(=O)COc2ccc(Cl)cc2Br)c1	2.59
CC(C)N(Cc1ccccc1)S(=O)(=O)c1ccc(F)cc1	-14.7

Compound	hERG current change (%, negative = inhibition) at 10uM [%]
Nc1c(NCc2ccccc2)c(=O)[nH]c(=O)n1Cc1ccccc1	-17.6
Cc1ccc2[nH]c3c(c2c1)CN(C)CC3.Cl	-5.01
O=C(O)c1cc(=O)cc(C(=O)O)[nH]1	-14.7
CNC(=S)N1N=C(c2cccs2)CC1c1ccc(F)cc1 (stereo not shown)	-12.8
O=C(Nc1ccccc1Br)C1CCN(C(=O)Cc2ccccc2)CC1	5.05
COc1ccc(C)c2sc(=NC(=O)C(C)C)n(C)c12	-0.259
COC(=O)C1=C(C)N(CCc2ccccc2)C(=O)/C1=C\c1ccco1	-4.19
COc1cc(OC)cc(-c2c(C#Cc3ccsc3)c3cc(-c4ccc5c(c4)OCCO5)ccc3n2C)c1	7.37
O=C(Nc1ccccc1[N+](=O)[O-])C1COc2ccccc2O1 (stereo not shown)	14
Cc1ccc(C(=O)Nc2ccc3c(c2)nc(CCNC(=O)c2ccco2)n3C)cc1	8.06
O=C(O)CC1COc2ccccc2N1C(=O)c1ccccc1Cl (stereo not shown)	31.3
O=C(Nc1ccc2c(c1)OCCO2)C1c2ccccc2C(=O)N2CCc3ccccc3C12 (stereo not shown)	-3.51
CCOC(=O)Cn1cc(C(=O)c2ccccc2)c2ccccc21	5.11
COC(=O)Cc1c(C)c2ccc(O)c(CNCc3ccc(OC)c(OC)c3)c2oc1=O.Cl	9.53
CN1/C(=C\C(=O)CSc2ncn[nH]2)C(C)(C)c2ccccc21	-2.38
COc1ccc(N2CCN(C(=O)c3ccccc3F)CC2)c([N+](=O)[O-])c1	-51.3
CC(=O)c1sc(NCCOc2ccc(C)cc2)nc1C	13.5
COc1ccc(NC(=O)C(c2ccc(C)cc2)N(C)C(=O)c2ccc(=O)[nH]c2)cc1 (stereo not shown)	-0.629
CCn1c(Cc2ccc(OC)cc2)nnc1SCC(=O)Nc1nc2ccccc2s1	12.9
Cc1ccc(S(=O)(=O)N2CCC(C(=O)N[C@@H](C)C(=O)NCC3CCCO3)CC2)cc1 (stereo partly shown)	-5.33
COc1ccc(/C=C/C(O)=C2/C(=O)NC3(C)CC2c2ccccc2O3)c(OC)c1OC (stereo not shown)	21.9
